B1: HHEX, Q03014 (protein)
chain: MQYPHPGPAAGAVGVPLYAPTPLLQPAHPTPFYIEDILGRGPAAPTPAPTLPSPNSSFTSLVSPYRTPVYEPTPIHPAFSHHSAAALAAAYGPGGFGGPLYPFPRTVNDYTHALLRHDPLGKPLLWSPFLQRPLHKRKGGQVRFSNDQTIELEKKFETQKYLSPPERKRLAKMLQLSERQVKTWFQNRRAKWRRLKQENPQSNKKEELESLDSSCDQRQDLPSEQNKGASLDSSQCSPSPASQEDLESEISEDSDQEVDIEGDKSYFNAG
B2: RARG, P13631 (protein)
chain: MATNKERLFAAGALGPGSGYPGAGFPFAFPGALRGSPPFEMLSPSFRGLGQPDLPKEMASLSVETQSTSSEEMVPSSPSPPPPPRVYKPCFVCNDKSSGYHYGVSSCEGCKGFFRRSIQKNMVYTCHRDKNCIINKVTRNRCQYCRLQKCFEVGMSKEAVRNDRNKKKKEVKEEGSPDSYELSPQLEELITKVSKAHQETFPSLCQLGKYTTNSSADHRVQLDLGLWDKFSELATKCIIKIVEFAKRLPGFTGLSIADQITLLKAACLDILMLRICTRYTPEQDTMTFSDGLTLNRTQMHNAGFGPLTDLVFAFAGQLLPLEMDDTETGLLSAICLICGDRMDLEEPEKVDKLQEPLLEALRLYARRRRPSQPYMFPRMLMKITDLRGISTKGAERAITLKMEIPGPMPPLIREMLENPEMFEDDSSQPGPHPNASSEDEVPGGQGKGGLKSPA
B3: EBF1, Q9UH73 (protein)
chain: MFGIQESIQRSGSSMKEEPLGSGMNAVRTWMQGAGVLDANTAAQSGVGLARAHFEKQPPSNLRKSNFFHFVLALYDRQGQPVEIERTAFVGFVEKEKEANSEKTNNGIHYRLQLLYSNGIRTEQDFYVRLIDSMTKQAIVYEGQDKNPEMCRVLLTHEIMCSRCCDKKSCGNRNETPSDPVIIDRFFLKFFLKCNQNCLKNAGNPRDMRRFQVVVSTTVNVDGHVLAVSDNMFVHNNSKHGRRARRLDPSEGTPSYLEHATPCIKAISPSEGWTTGGATVIIIGDNFFDGLQVIFGTMLVWSELITPHAIRVQTPPRHIPGVVEVTLSYKSKQFCKGTPGRFIYTALNEPTIDYGFQRLQKVIPRHPGDPERLPKEVILKRAADLVEALYGMPHNNQEIILKRAADIAEALYSVPRNHNQLPALANTSVHAGMMGVNSFSGQLAVNVSEASQATNQGFTRNSSSVSPHGYVPSTTPQQTNYNSVTTSMNGYGSAAMSNLGGSPTFLNGSAANSPYAIVPSSPTMASSTSLPSNCSSSSGIFSFSPANMVSAVKQKSAFAPVVRPQTSPPPTCTSTNGNSLQAISGMIVPPM
B4: RFXANK, O14593 (protein)
chain: MELTQPAEDLIQTQQTPASELGDPEDPGEEAADGSDTVVLSLFPCTPEPVNPEPDASVSSPQAGSSLKHSTTLTNRQRGNEVSALPATLDSLSIHQLAAQGELDQLKEHLRKGDNLVNKPDERGFTPLIWASAFGEIETVRFLLEWGADPHILAKERESALSLASTGGYTDIVGLLLERDVDINIYDWNGGTPLLYAVRGNHVKCVEALLARGADLTTEADSGYTPMDLAVALGYRKVQQVIENHILKLFQSNLVPADPE
B5: ZNF655, Q8N720 (protein)
chain: MEEIPAQEAAGSPRVQFQSLETQSECLSPEPQFVQDTDMEQGLTGDGETREENKLLIPKQKISEEVHSYKVRVGRLKHDITQVPETREVYKSEDRLERLQEILRKFLYLEREFRQITISKETFTSEKNNECHEPEKSFSLDSTIDADQRVLRIQNTDDNDKYDMSFNQNSASGKHEHLNLTEDFQSSECKESLMDLSHLNKWESIPNTEKSYKCDVCGKIFHQSSALTRHQRIHTREKPYKCKECEKSFSQSSSLSRHKRIHTREKPYKCEASDKSCEASDKSCSPSSGIIQHKKIHTRAKSYKCSSCERVFSRSVHLTQHQKIHKEMPCKCTVCGSDFCHTSYLLEHQRVHHEEKAYEYDEYGLAYIKQQGIHFREKPYTCSECGKDFRLNSHLIQHQRIHTGEKAHECNECGKAFSQTSCLIQHHKMHRKEKSYECNEYEGSFSHSSDLILQQEVLTRQKAFDCDVWEKNSSQRAHLVQHQSIHTKENS
B6: MTA1, Q13330 (protein)
chain: MAANMYRVGDYVYFENSSSNPYLIRRIEELNKTANGNVEAKVVCFYRRRDISSTLIALADKHATLSVCYKAGPGADNGEEGEIEEEMENPEMVDLPEKLKHQLRHRELFLSRQLESLPATHIRGKCSVTLLNETESLKSYLEREDFFFYSLVYDPQQKTLLADKGEIRVGNRYQADITDLLKEGEEDGRDQSRLETQVWEAHNPLTDKQIDQFLVVARSVGTFARALDCSSSVRQPSLHMSAAAASRDITLFHAMDTLHKNIYDISKAISALVPQGGPVLCRDEMEEWSASEANLFEEALEKYGKDFTDIQQDFLPWKSLTSIIEYYYMWKTTDRYVQQKRLKAAEAESKLKQVYIPNYNKPNPNQISVNNVKAGVVNGTGAPGQSPGAGRACESCYTTQSYQWYSWGPPNMQCRLCASCWTYWKKYGGLKMPTRLDGERPGPNRSNMSPHGLPARSSGSPKFAMKTRQAFYLHTTKLTRIARRLCREILRPWHAARHPYLPINSAAIKAECTARLPEASQSPLVLKQAVRKPLEAVLRYLETHPRPPKPDPVKSVSSVLSSLTPAKVAPVINNGSPTILGKRSYEQHNGVDGNMKKRLLMPSRGLANHGQARHMGPSRNLLLNGKSYPTKVRLIRGGSLPPVKRRRMNWIDAPDDVFYMATEETRKIRKLLSSSETKRAARRPYKPIALRQSQALPPRPPPPAPVNDEPIVIED
B7: NFYC, Q13952 (protein)
chain: MSTEGGFGGTSSSDAQQSLQSFWPRVMEEIRNLTVKDFRVQELPLARIKKIMKLDEDVKMISAEAPVLFAKAAQIFITELTLRAWIHTEDNKRRTLQRNDIAMAITKFDQFDFLIDIVPRDELKPPKRQEEVRQSVTPAEPVQYYFTLAQQPTAVQVQGQQQGQQTTSSTTTIQPGQIIIAQPQQGQTTPVTMQVGEGQQVQIVQAQPQGQAQQAQSGTGQTMQVMQQIITNTGEIQQIPVQLNAGQLQYIRLAQPVSGTQVVQGQIQTLATNAQQGQRNASQGKPRRCLKETLQITQTEVQQGQQQFSQFTDGQRNSVQQARVSELTGEAEPREVKATGNSTPCTSSLPTTHPPSHRAGASCVCCSQPQQSSTSPPPSDALQWVVVEVSGTPNQLETHRELHAPLPGMTSLSPLHPSQQLYQIQQVTMPAGQDLAQPMFIQSANQPSDGQAPQVTGD

This is one part of the list. Binding of human transcription factors and regulators to the viral nucleoprotein by AlphaScreen, crude cell-free proteins, amounts not normalised, one pass. Fold of the Venus control; higher = more signal. No active / inactive call. Single-pass screen; sequences are the whole Swiss-Prot entries looked up by name.

The test deals with nucleoprotein N of Crimean-Congo hemorrhagic fever virus. The test can be described thus: AlphaScreen luminescence signal relative to Venus negative control (fold); higher = stronger binding to CCHFV N. The procedure: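 AlphaScreen binding of cell-free made, FLAG-GST-tagged human transcription factors and regulators (crude translation products) to biotinylated N protein; signal as fold of the FLAG-GST-Venus control. One pass.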
A general note: In Alpha technology, singlet oxygen from a donor bead excites a nearby acceptor bead.
With B1, the AlphaScreen luminescence signal was determined as 3.67.

Regarding B2, the AlphaScreen luminescence signal came out at 2.7.

Molecule B3 returned an AlphaScreen luminescence signal of 1.95.

As to B4, the AlphaScreen luminescence signal was 1.49.

B5 returned an AlphaScreen luminescence signal of 1.86.

With B6, the AlphaScreen luminescence signal came out at 2.23.

B7 displayed an AlphaScreen luminescence signal of 1.53.

For the origin of these results see the supplement of paper PMC12423691.
